The test deals with Plasmodium falciparum NF54 stage V gametocytes. The test can be described thus: viability index relative to DMSO control (fraction); higher = less gametocyte killing. Conditions: 2.5 µM, incubation time: 72 h. A digest of the protocol: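 Gametocytes (P. falciparum NF54, stage V) were treated with compound at 2.5 µM for 72 hr at 37°C in low oxygen, in serum-free medium at 0.75% gametocytemia and 1.25% hematocrit. Counts of 20–70 µm2 red particles, taken from one field per well after MitoTracker Red CMXRos with saponin, were divided by the plate mean of solvent-only wells. This ratio is the viability index.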

The mark [1] stands for this setting: library set: Broad Institute DOS.

Data on 36 compounds can be found in the supplement of paper PMC4723716.

± gives the uncertainty stated by the source. The full ranking holds about 9,900 compounds; the median of “viability index relative to DMSO control” is about 1, and the lowest 2% start at about 0.85. The list shows a part of the results.

For the compound `O=C(C[C@@H]1CC[C@H]2[C@@H](COC[C@@H](O)CN2CCC(F)(F)F)O1)NCC1CC1`, under setting [1], the viability index was found to be 1.11 ± 0.039.
Same read-out and setting: then `N#C[C@H]1[C@@H](c2ccccc2-c2ccccc2F)[C@H](CO)N1C(=O)c1ccccn1`, with 1.04 ± 0.052; and `Cc1noc(C)c1NC(=O)Nc1cccc2c1O[C@H](CN(C)Cc1ccc(C(=O)Nc3ccccc3N)cc1)[C@@H](C)CN([C@@H](C)CO)C2=O`, with 0.95 ± 0.043; and `O=C(Nc1ccc(C(F)(F)F)cc1)N[C@H]1C=C[C@@H](CC(=O)N2CCCCC2)O[C@H]1CO`, with 1.08 ± 0.16.
`COc1ccc(S(=O)(=O)N(C)C[C@@H]2OCCCC[C@@H](C)Oc3ccc(NC(=O)Cc4ccccc4)cc3C(=O)N([C@H](C)CO)C[C@@H]2C)cc1` yielded a viability index under setting [1] of 1.08 ± 0.08.
On the same count and under the same terms, then `CN1C(=O)c2cc(NC(=O)C3CCOCC3)ccc2OC[C@@H]2O[C@H](CC(=O)NCCc3ccncc3)CC[C@H]21`, with 1.12 ± 0.11.
Same read-out and setting: then `COc1ccc(C[C@H]2CCn3cc(nn3)COC[C@@H](C)NC2=O)cc1`, with 1.02 ± 0.037; and `O=C(Nc1ccccc1F)N[C@H]1CC[C@@H](CCNC(=O)C2CC2)O[C@@H]1CO`, with 1.14 ± 0.086; and `CS(=O)(=O)N1[C@@H](CO)[C@@H](c2ccccc2)C12CN(C(=O)c1ccccc1F)C2`, with 1.07 ± 0.073.
Same read-out and setting: then `COC(=O)C[C@H]1CC[C@H]2[C@H](COc3ccc(NC(=O)Nc4cccc(C#N)c4)cc3C(=O)N2C)O1`, with 1.1 ± 0.051; and `Cc1noc(C)c1NC(=O)Nc1ccc2c(c1)C(=O)N([C@H](C)CO)C[C@H](C)[C@@H](CN(C)S(=O)(=O)c1ccc(F)cc1)O2`, with 1.08 ± 0.042.
On to `Cc1ccccc1-c1ccc([C@H]2[C@H]3CN(C(=O)c4ccncc4)CC(=O)N3[C@H]2CO)cc1`, for which the viability index under setting [1] was determined as 1.04 ± 0.027.
The same measure, in the same setting: under `CCCN1[C@H](CO)[C@H](c2ccc(-c3ccccc3F)cc2)[C@@H]1CNC(=O)C1CCC1` stands 0.99204 ± 0.00027; under `COc1ccccc1-c1cnc2c(c1)C(=O)N([C@H](C)CO)C[C@H](C)[C@H](CN(C)C(=O)CC1CC1)O2`, 1 ± 0.11.
Still for that read-out and setting: then `O=C(Cc1ccncc1)N1CC[C@@H]2[C@H](CO)Nc3ccc(Br)cc3[C@@H]21`, with 1.077 ± 0.0015.
Same read-out and setting: under `COc1ccc([C@@H]2C/C=C\C[C@H](c3ccc4c(c3)OCO4)NC(=O)[C@H](c3ccccc3)CC(=O)N2)c(OC)c1` stands 1.04 ± 0.056.
The compound `COc1cccc(-c2ccc3c(c2)[C@H]2[C@H](CCN2C(=O)c2ccccn2)[C@H](CO)N3)c1` came in with a viability index under setting [1] of 1.036 ± 0.0019.
With `O=C(NCCc1ccccc1)[C@H]1[C@H](CO)[C@H]2Cn3c(ccc(-c4cccc(F)c4)c3=O)[C@@H]1N2`, under setting [1], the viability index is 1.04 ± 0.025.
Same read-out and setting: under `Cc1nn(C)cc1NC(=O)C[C@H]1CC[C@@H]2[C@H](COc3ccc(NC(=O)c4cccc(F)c4)cc3C(=O)N2C)O1` stands 1.13 ± 0.13; under `COC(=O)C[C@H]1C=C[C@H](N)[C@H](CO)O1`, 1.07 ± 0.11; under `CO[C@H](CN(C)C(=O)c1cc(Cl)cc(Cl)c1)[C@@H](C)CN(C(=O)Nc1ccc(F)cc1)[C@@H](C)CO`, 0.994 ± 0.031.
The same measure, in the same setting: then `N#C[C@@H]1[C@H](c2ccccc2C2=CCCCC2)[C@H](CO)N1C(=O)Nc1ccccc1F`, with 1.04 ± 0.055; and `Cc1noc(C)c1S(=O)(=O)N(C)C[C@H]1Oc2ccc(N(C)C)cc2C(=O)N([C@H](C)CO)C[C@@H]1C`, with 1.03 ± 0.052; and `CN(C)C(=O)c1cccc(-c2ccc3c(c2)[C@@H]2[C@@H](CCN2C(=O)Cc2ccccc2)[C@H](CO)N3)c1`, with 0.991 ± 0.022.
On the same count and under the same terms, then `O=C(C[C@@H]1CC[C@H]2NC[C@@H](O)COC[C@@H]2O1)Nc1nccs1`, with 1.05 ± 0.015.
In the case of `CCCC(=O)Nc1ccc2c(c1)OC[C@@H](C)N(Cc1ccccc1F)C[C@@H](C)[C@H](OC)CN(C)C2=O`, the viability index (library set: Broad Institute Blood Stage) amounted to 0.93 ± 0.05.
Regarding `N#C[C@H]1[C@@H](c2ccc(-c3cccc(F)c3)cc2)[C@H](CO)N1c1nc(-c2ccccc2)cs1`, the viability index under setting [1] amounted to 1.099 ± 0.0076.
The same measure, in the same setting: then `CCCC(=O)Nc1ccc2c(c1)C(=O)N(C)[C@H]1CC[C@@H](CC(=O)NCc3cccc(F)c3)O[C@H]1CO2`, with 1.06 ± 0.028; and `COCC(=O)N1CC(=O)N2[C@H](CO)[C@H](c3ccc(-c4ccccc4F)cc3)[C@@H]2C1`, with 0.992 ± 0.09; and `O=C(CC(F)(F)F)N1C[C@@H]2[C@H](c3ccccc31)[C@@H](CO)N2CC1CCOCC1`, with 1.01 ± 0.13.
Same read-out and setting: under `C[C@H]1CN([C@@H](C)CO)C(=O)CCCn2nncc2CO[C@H]1CN(C)S(=O)(=O)c1cn(C)cn1` stands 1.04 ± 0.027; under `C[C@H](CO)N1C[C@H](C)[C@@H](CN(C)S(=O)(=O)c2ccc([N+](=O)[O-])cc2)OCc2ccccc2-c2ccccc2C1=O`, 0.967 ± 0.051; under `N#C[C@@H]1[C@@H](c2ccccc2)[C@H](CO)N1C(=O)Nc1cccc(F)c1`, 1.04 ± 0.032.
On the same count and under the same terms, then `COc1ccc(NC(=O)N2CC(=O)N3[C@H](CO)[C@H](c4ccc(Br)cc4)[C@@H]3C2)cc1`, with 0.909 ± 0.019.
`CN(C)CC(=O)N1[C@H](CO)[C@@H](c2ccccc2)C12CN(CC1CCOCC1)C2` yielded a viability index under setting [1] of 1.13 ± 0.051.
Same read-out and setting: then `COc1cccc(NC(=O)Nc2ccc3c(c2)C(=O)N(C)C[C@@H](OC)[C@@H](C)CN[C@@H](C)CO3)c1`, with 0.986 ± 0.032.
